Values quoted from earlier work in paper PMC6222691, “Isoxazolidine Conjugates of N3-Substituted 6-Bromoquinazolinones—Synthesis, Anti-Varizella-Zoster Virus, and Anti-Cytomegalovirus Activity” (Molecules : A Journal of Synthetic Chemistry and Natural …, 2018).

Settings: VEEV study; cited from earlier work

Row | SMILES | CC50
1 | CCN1CCN(Cc2nc3ccc([N+](=O)[O-])cc3c(=O)n2-c2ccccc2F)CC1 [compound 8] | 50 µM
2 | CN1CCN(Cc2nc3ccc([N+](=O)[O-])cc3c(=O)n2-c2ccccc2F)CC1 [compound 7] | 50 µM
